Measurements taken from PubChem BioAssay AID1347055 (National Center for Advancing Translational Sciences (NCATS), 2019).
Values joined by “and” are separate entries in the source; they are usually repeats but may differ in a detail not shown here. Equal entries are not always repeated. Hit rate of the full screen: of about 54,000 compounds, about 120 (0.22%) were called active. Inconclusive results, whose numbers are uncertain, are shown with a selection of clear calls. Calls follow the shape of the dose curve; as a rule, active = well fitted inhibition curve with a large enough effect; inconclusive = small, poorly fitted or top-dose-only effect, or effect the other way; inactive = flat fitted curve, though single readings scatter. Potencies of inconclusive entries are doubtful fits and often do not repeat.

target: Fumarate hydratase, mitochondrial (Homo sapiens) (UniProt P07954); assay: Identification of activators of human fumarate hydratase by quantitative high-throughput screening; conditions: FH coupled MDH/diaphorase resazurin fluorescence, 15 min; activity change, negative = inhibition: at 79.9 µM (top of the series); also: the screen sought activators but most active calls are inhibition curves; nearly all actives have a fitted effect of over 45% in size
UniProt P07954, sequence (P07954 whole entry, looked up): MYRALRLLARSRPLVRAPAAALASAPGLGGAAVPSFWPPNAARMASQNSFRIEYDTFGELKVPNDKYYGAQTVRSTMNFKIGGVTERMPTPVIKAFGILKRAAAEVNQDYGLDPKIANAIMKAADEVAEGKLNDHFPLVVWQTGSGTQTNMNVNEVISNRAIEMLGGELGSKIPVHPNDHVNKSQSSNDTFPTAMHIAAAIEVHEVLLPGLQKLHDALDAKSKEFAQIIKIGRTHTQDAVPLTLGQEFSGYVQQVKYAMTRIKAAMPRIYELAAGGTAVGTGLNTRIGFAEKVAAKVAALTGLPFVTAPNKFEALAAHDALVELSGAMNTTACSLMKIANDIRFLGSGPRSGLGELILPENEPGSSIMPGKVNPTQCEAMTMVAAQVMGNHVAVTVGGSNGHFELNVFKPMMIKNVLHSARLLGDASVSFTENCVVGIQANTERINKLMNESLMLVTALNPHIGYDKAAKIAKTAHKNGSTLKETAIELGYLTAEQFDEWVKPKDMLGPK
% is scaled to controls: 0 for no effect and ±100 for the full control effect; potency is read from the fitted curve at half-maximal effect; tags tell the direction and shape of the fitted curve.

SMILES	Potency	activity change, negative = inhibition
CC(C)(C)C1CCc2c(sc(NC(=O)Cn3nnc(-c4ccccc4Cl)n3)c2C#N)C1 (stereo not given)	inconclusive: 50.1 µM [inhibitor, single point]	–
CCOC(=O)c1c(C)[nH]c(C)c1S(=O)(=O)N1CCC(C(=O)Nc2cc(C)ccn2)CC1	inconclusive: 50.1 µM [inhibitor, single point]	–
Cc1ccc(S(=O)(=O)C2(C(=O)Nc3ccc(Cl)c(C(F)(F)F)c3)CC2)cc1	inconclusive: 35.5 µM [inhibitor, partial curve, poor fit]	–
COc1ccc(OC)c(C(=O)CC2(O)C(=O)N(Cc3ccccc3C)c3ccccc32)c1 (stereo not given)	inconclusive: 31.6 µM [inhibitor, single point]	–
Cc1ccc(-n2c(=O)c3cccnc3n2CC(=O)Nc2cc(C)cc(C)c2)cc1	inconclusive: 50.1 µM [inhibitor, single point]	–
COC(=O)c1ccc(C2Nc3c(C)cccc3-c3cc(C)nn32)cc1 (stereo not given)	inconclusive: 35.5 µM [inhibitor, partial curve]	–
Cc1cc(Cl)ccc1OCC(=O)N(Cc1sccc1C)C1CCS(=O)(=O)C1 (stereo not given)	–	inactive: -12.7%
COc1ccc(OC)c(NS(=O)(=O)c2ccc(-n3cccn3)cc2)c1	inconclusive: 7.08 µM [inhibitor, partial curve, poor fit]	–
CC(C)CCNC(=O)[C@H](CC(C)C)NC(=O)[C@H]1O[C@@H]1C(=O)O	–	inactive: 4.21%
COc1ccccc1NC(=O)C1=C(C)Nc2nc(SCc3ccccc3)nn2C1c1cccc(O)c1 (stereo not given)	inconclusive: 39.8 µM [inhibitor, partial curve, poor fit]	–
CC(C)C1=CCC(C)(O)C(OC2OC(CO)C(O)C(O)C2O)C1 (stereo not given)	–	inactive: -8.03% [at 53.3 µM]
Cc1[nH]c2ccc(Br)cc2c1CCNC(=O)c1cc2ccccc2oc1=O	inconclusive: 50.1 µM [inhibitor, partial curve, poor fit]	–
O=C(O)Cn1cnnn1	–	inactive: -7.79% [at 53.3 µM]
Cc1ccc(CCNC(=O)c2ccc3[nH]c(C)c(C)c3c2)cc1	active: 35.5 µM	–
CC1=C(C)C(=O)C(C(CCCCCC(=O)O)c2ccccc2)=C(C)C1=O (stereo not given)	inconclusive: 19.3 µM [inhibitor, partial curve]	–
CCn1c(=O)cc(OCC(=O)NCc2ccccc2OC)c2ccccc21	–	inactive: -13.8%
CCOc1ccc(CNC(=O)C2CCN(c3nnc(-n4c(C)ccc4C)s3)CC2)cc1	–	inactive: -2.18%
COc1ccc2c(c1)CCc1sc(NC(=O)c3cccc(Br)c3)nc1-2	inconclusive: 22.4 µM [inhibitor, partial curve, poor fit]	–
COc1ccccc1NC(=O)CSC1=Nc2ccccc2C2=NC(Cc3ccccc3)C(=O)N12 (stereo not given)	inconclusive: 31.6 µM [inhibitor, partial curve, poor fit]	–
CCOc1cc(CNCCSc2nnnn2C)cc(Cl)c1OCc1ccc(Cl)cc1	inconclusive: 20 µM [inhibitor, partial curve]	–

SMILES	Potency	activity change, negative = inhibition
CCOc1ccc(NC(=O)CC2C(=O)N(c3cccc(C)c3)C(=O)N2CCC2=CCCCC2)cc1 (stereo not given)	inconclusive: 3.98 µM [inhibitor, partial curve, poor fit]	–
CC(=O)N(Cc1cccnc1)c1nc2cc(C)cc(C)c2s1	inconclusive: 39.8 µM [inhibitor, partial curve, poor fit]	–
COCC1OC(OC(C)(C)C2CCC3(C)C=C(C4CCC5C4(C)CC(O)C4OC(C(C)(C)O)CCC45C)CCC3O2)C(NC(C)=O)C(O)C1O (stereo not given)	–	inactive: -1.73% [at 20.6 µM]
Cc1ccc([N+](=O)[O-])c(Oc2ncnc3c2oc2ccccc23)c1	inconclusive: 20 µM [inhibitor, partial curve, poor fit]	–
COc1ccc2c(Sc3ccccc3)c(C(=O)N3CCC(C)CC3)[nH]c2c1	inconclusive: 28.2 µM [inhibitor, partial curve, poor fit]	–
CCOC(=O)c1c(-c2ccc(C)cc2C)csc1NC(=O)c1ccccc1Cl	–	inactive: -12%
O=C(CN(c1cccc(C(F)(F)F)c1)S(=O)(=O)c1ccccc1)Nc1cccc(Cl)c1	inconclusive: 25.1 µM [inhibitor, single point]	–
Cc1cc(O)cc(O[C@@H]2O[C@H](CO)[C@@H](O)[C@H](O)[C@H]2O)c1	–	inactive: -20%
O=C(Nc1cccc(Cl)c1)c1cc(S(=O)(=O)N2CCCc3ccccc32)ccc1F	inconclusive: 7.08 µM [inhibitor, partial curve]	–
O=C(c1cc(O)c(O)c([N+](=O)[O-])c1)c1ccccc1F	inconclusive: 2.82 µM [inhibitor, partial curve, poor fit]	–
CCc1ccc(-n2nc(C)c3c(C)cc(=O)n(CC(=O)N(CC)Cc4ccccc4)c32)cc1	inconclusive: 28.2 µM [inhibitor, partial curve]	–
CC1=CC2/C=C(\C)CCC3OC(C)(C)OC3CCC(=O)C23C(=O)NC(CC(C)C)C3C1C (stereo not given)	–	inactive: -1.22% [at 53.3 µM]
CCOc1cc(Cl)c(S(=O)(=O)n2cc(C)nc2CC)cc1Cl	inconclusive: 31.6 µM [inhibitor, single point]	–
CCn1cc2nc(SCc3ccccc3)n(Cc3ccc(C)cc3)c(=O)c2n1	inconclusive: 31.6 µM [inhibitor, partial curve, poor fit]	–
CC1(C)CC(NC(=O)C(=O)Nc2ccc(Cl)cc2)CC(C)(C)N1	–	inactive: -0.158%
CCOc1ccccc1NC(=O)C(=O)NCC(c1cccnc1)N1CCN(c2ccccc2)CC1 (stereo not given)	inconclusive: 56.2 µM [inhibitor, partial curve, poor fit]	–
CCN(CC)CCOCCOC(=O)C1(c2ccccc2)CCCC1	inactive	–
Cc1cc(C)n2nc(CNS(=O)(=O)c3ccc(F)cc3)nc2n1	inconclusive: 35.5 µM [inhibitor, partial curve, poor fit]	–
CCN(CC)CCNC(=O)c1c(C)[nH]c(C=C2C(=O)Nc3ccc(F)cc32)c1C	inconclusive: 88.5 µM [activator, single point]	–
Cc1cccc(NC(=O)c2ccc(F)c(S(=O)(=O)N3CCN(c4ccc(F)cc4)CC3)c2)c1	inconclusive: 31.6 µM [inhibitor, single point]	–

SMILES	Potency	activity change, negative = inhibition
N[C@H]1CONC1=O	inconclusive: 39.8 µM [inhibitor, single point]	–
CCCCC1C(=O)N(c2ccccc2)N(c2ccc(O)cc2)C1=O (stereo not given)	inconclusive: 34.7 µM [inhibitor, partial curve, poor fit]	–
Cc1cc(NC(=O)NCCN2CCC(O)(Cc3ccccc3)CC2)c2ccccc2n1	–	inactive: 11.4%
Cc1ccc(S(=O)(=O)Nc2nc3n(n2)C(c2ccc(Cl)cc2)C=C(c2ccccc2)N3)cc1 (stereo not given)	inconclusive: 50.1 µM [inhibitor, partial curve, poor fit]	–
COc1ccc(CCNC(=O)c2cc(-c3ccc(C)c(C)c3)nc3ccccc23)cc1OC	inconclusive: 31.6 µM [inhibitor, partial curve, poor fit]	–
CC1=C(C(=O)OC2CCCCCC2)C(c2c(Cl)cccc2Cl)CC(=O)N1 (stereo not given)	inconclusive: 35.5 µM [inhibitor, partial curve]	–
CCc1ccccc1NC(=O)Cn1c(=O)oc2ccccc21	–	inactive: -5.69%
COc1ccc2c(CNCCc3ccccc3OC)c(C(=O)O)n(Cc3ccc(F)cc3Cl)c2c1	inconclusive: 15.8 µM [inhibitor, partial curve]	–
CCOc1cccc(C2c3[nH]c4ccccc4c3CCN2C(=O)Cc2cccc(OCC)c2OCC)c1 (stereo not given)	inconclusive: 7.94 µM [inhibitor, single point]	–
CC1CCc2nc(NC(=O)Cc3ccc(Cl)cc3)sc2C1 (stereo not given)	inconclusive: 39.8 µM [inhibitor, partial curve]	–
COc1cc(/C=C/c2ccccc2)c(C(=O)O)c(O)c1CC=C(C)C	–	inactive: -5.07% [at 53.3 µM]
NC[C@@](O)(c1ccc(Cl)cc1)c1ccc(-c2cn[nH]c2)cc1	inconclusive: 39.8 µM [inhibitor, single point]	–
COc1cc2nc(N3CCN(C(=O)C4COc5ccccc5O4)CC3)nc(N)c2cc1OC (stereo not given)	inactive and inconclusive: 15.5 µM [inhibitor, partial curve]	–
CC1=Nc2cc(C(=O)NC(C)C)ccc2Sc2ccc(C)cc21	inconclusive: 44.7 µM [inhibitor, single point]	–
Cc1cc(C)cc(NC(=O)C2CCN(S(=O)(=O)c3cccc(-c4noc(C)n4)c3)CC2)c1	inconclusive: 28.2 µM [inhibitor, partial curve]	–
Cc1cccc(C)c1Nc1c(-c2ccc(O)cc2)nc2sccn12	active: 31.6 µM	–
C[C@@H]1O[C@@H](O[C@H]2[C@H](O[C@H]3CC[C@@]4(C)C(CC[C@]5(C)C4CC=C4[C@@H]6CC(C)(C)CC[C@]6(C(=O)O[C@@H]6OC[C@H](O)[C@H](O)[C@H]6O[C@@H]6O[C@@H](C)[C@H](O[C@@H]7O[C@H](CO)[C@@H](O)[C@H](O)[C@H]7O)[C@H](O)[C@H]6O)[C@H](O)C[C@]45C)C3(C)C)O[C@H](CO)[C@@H](O[C@@H]3OC[C@@H](O)[C@H](O)[C@H]3O)[C@@H]2O)[C@H](O)[C@H](O)[C@H]1O (stereo not given in full)	–	inactive: 2.37% [at 13.5 µM]
CCCCOC(=O)c1ccc(Nc2nnc(-n3nc(C)cc3C)c3ccccc23)cc1	inconclusive: 39.8 µM [inhibitor, partial curve, poor fit]	–
CC(O)c1cc(C(=O)N[C@@H](C)Cn2ccc(-c3ccc(C#N)c(Cl)c3)n2)n[nH]1 (stereo not given in full)	–	inactive: -12.7%
COc1ccc(CN2C(=O)N(c3ccc(C)cc3)C(=O)C2CC(=O)Nc2ccccc2)cc1OC (stereo not given)	inconclusive: 50.1 µM [activator, single point]	–
